Laboratory results: PubChem BioAssay AID488969 (Vanderbilt High Throughput Screening Facility, 2010)
Over roughly 110,000 compounds, “z-score” has its median near -0.1; the highest 2% begin near 2. Some of the results follow.

molecular target: Metabotropic glutamate receptor 8 (Rattus norvegicus) (UniProt P70579); experiment: rat mGluR8 modulators via GIRK flux, primary screen, cell-based, thallium flux, HTS (AID 488969); details: HEK293 rat mGluR8, GIRK (G protein-gated inwardly rectifying potassium channel) thallium flux, FluoZin2; at 10 µM; stronger effect = higher value; submaximal glutamate (EC20) added with thallium
Chain of UniProt P70579 (P70579 whole entry, looked up): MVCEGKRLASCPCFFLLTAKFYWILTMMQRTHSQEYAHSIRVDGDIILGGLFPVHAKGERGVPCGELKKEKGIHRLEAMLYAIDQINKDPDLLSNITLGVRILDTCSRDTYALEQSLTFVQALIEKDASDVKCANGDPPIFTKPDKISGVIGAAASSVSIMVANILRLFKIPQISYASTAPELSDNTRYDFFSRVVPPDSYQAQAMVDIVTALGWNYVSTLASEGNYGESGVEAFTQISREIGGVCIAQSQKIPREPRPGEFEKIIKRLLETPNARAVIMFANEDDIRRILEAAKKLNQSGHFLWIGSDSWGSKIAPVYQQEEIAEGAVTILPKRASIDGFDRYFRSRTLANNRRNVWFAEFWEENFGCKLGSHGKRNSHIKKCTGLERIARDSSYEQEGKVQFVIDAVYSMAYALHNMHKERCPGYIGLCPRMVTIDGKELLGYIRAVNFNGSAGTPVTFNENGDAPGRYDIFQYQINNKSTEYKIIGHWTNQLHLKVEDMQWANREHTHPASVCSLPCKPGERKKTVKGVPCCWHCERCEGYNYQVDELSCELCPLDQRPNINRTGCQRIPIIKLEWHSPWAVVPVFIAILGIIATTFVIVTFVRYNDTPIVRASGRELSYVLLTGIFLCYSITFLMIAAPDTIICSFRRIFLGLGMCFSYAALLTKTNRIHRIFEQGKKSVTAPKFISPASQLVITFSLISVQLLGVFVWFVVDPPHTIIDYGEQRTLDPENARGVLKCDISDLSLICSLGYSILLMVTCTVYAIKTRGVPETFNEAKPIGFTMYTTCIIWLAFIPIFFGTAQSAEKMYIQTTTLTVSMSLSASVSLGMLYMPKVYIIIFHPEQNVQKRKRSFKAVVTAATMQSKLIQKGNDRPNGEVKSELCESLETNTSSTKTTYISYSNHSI

In order of rising z-score:
1. CC(=O)OCc1c(C(F)(F)F)nn(C)c1SCc1ccc(Cl)cc1  -1.09
2. COc1ccc(C(=O)CSC2=C(C#N)C3(CCCCC3)C(C#N)=C(N)N2)cc1  -0.63
3. COc1ccc(/C=N/n2cncn2)cc1CSc1ccccn1  -0.583
4. O=C(C[n+]1cc(-c2ccc(Cl)cc2)n2c1CCC2)N1c2ccccc2Sc2ccccc21  -0.557
5. COc1cccc(C(=O)Nc2ccccc2C(=O)N2CCCC2)c1  -0.477
6. CC(Oc1ccc(F)cc1)C(=O)Nc1sc2c(c1C(=O)NCc1cccnc1)CCCC2 (centres undefined)  -0.461
7. Cc1ccccc1CSc1ncc(C#N)c(N)n1  -0.442
8. CC(=O)c1nc(N2C(=O)C3CC=C(C)CC3C2=O)sc1C (centres undefined)  -0.425
9. COc1ccc(C)cc1C1=Nc2ccccc2C1(C)C  -0.42
10. COc1ccc(OC)c(Nc2ncnc3ccccc23)c1  -0.375
11. CCOC(=O)C1=NN(c2ccccc2C)C2=NC(C)=C(C(=O)OC)C(c3cccs3)N12 (centres undefined)  -0.355
12. COc1cc(/C=C(\C#N)C(N)=O)ccc1OS(=O)(=O)c1ccc(C)cc1  -0.309
13. CCCOc1ccc(/C=N/NC(=O)c2ccc(Cn3cc([N+](=O)[O-])cn3)o2)cc1  -0.292
14. [O-][n+]1onc2c1CCC1N(O)C(c3ccccc3)CC21O (centres undefined)  -0.29
15. O=C(NC(NC(=S)N1CCOCC1)C(Cl)(Cl)Cl)c1cccc2ccccc12 (centres undefined)  -0.281
16. CCCCc1ccc(-c2csc(/C(C#N)=C/c3ccco3)n2)cc1  -0.275
17. NC(=O)N/N=C\c1cc(Br)ccc1O  -0.265
18. Cc1ccc(NC(=O)CCC(=O)NNC(=O)c2ccco2)c(C)c1  -0.251
19. Cc1ccc(OCCN2C(=O)NC3(CCc4ccccc4C3)C2=O)cc1 (centres undefined)  -0.248
20. CC(/C=N/NC(=O)c1cc(-c2ccncc2)nc2ccccc12)=C\c1ccco1  -0.245
21. c1ccc(C2=Nn3c(nnc3-c3cccnc3)SC2)cc1  -0.24
22. O=C(c1cc2ccccc2oc1=O)N(c1ccc(Cl)cc1)C1C=CS(=O)(=O)C1 (centres undefined)  -0.236
23. O=C1COc2ccc(C(=O)c3ccccc3C(=O)NCc3ccccc3)cc2N1  -0.231
24. COc1cccc(-c2nc(Oc3cccc(C)c3C)c3ccccc3n2)c1O  -0.227
25. COC(=O)C1=C(O)/C(=C\c2ccc(O)c(OC)c2)N=C1C  -0.206
26. N/C(=N\OC(=O)CCCN1C(=O)c2ccccc2C1=O)c1ccc(Br)cc1  -0.204
27. Nc1nnc(SCc2ccc3c(c2)OCO3)s1  -0.203
28. O=C(COC(=O)/C(=C/c1cccs1)c1cccs1)NC(c1ccccc1)c1ccccc1  -0.181
29. COc1ccc(C(=O)NCC(=O)OCC(=O)c2cc(OC)c(OC)c(OC)c2)cc1OC  -0.173
30. COc1ccc(CSc2nnc(SCc3ccc([N+](=O)[O-])cc3)s2)cc1  -0.17
31. COC(=O)CSC1=C(C#N)C(c2ccsc2)CC(=O)N1 (centres undefined)  -0.166
32. COc1cccc(NC(=O)Cn2c(=O)n(CCCC(=O)NCc3ccco3)c(=O)c3ccccc32)c1  -0.143
33. COc1ccc(NC(=O)COC(=O)Cc2ccc(-c3ccccc3)cc2)c(OC)c1  -0.142
34. COc1ccc(NC(=O)O/N=C2/CCCc3ccc(OC)cc32)cc1  -0.131
35. COc1ccc(Nc2nc3ccccc3nc2NS(=O)(=O)c2cccs2)cc1  -0.119
36. Cc1[nH]c2ccccc2c1C(=O)/C=C\c1ccccc1Cl  -0.115
37. COc1ccsc1C(=O)N1CCN(Cc2ccc3c(c2)OCO3)CC1  -0.0804
38. Cc1ncsc1C(=O)N1N=C2/C(=C/c3ccc(N4CCOCC4)cc3)CCCC2C1c1ccc(N2CCOCC2)cc1 (centres undefined)  -0.0668
39. CC1CCN(CC(=O)Nc2sc3c(c2C#N)CCC3)CC1  -0.0666
40. COc1ccc(-c2cc(C(=O)N/N=C/c3ccc(OC)c(COCC(F)(F)C(F)F)c3)c3ccccc3n2)c(OC)c1  -0.0594
41. CN(CC(=O)NCCCN1CCOCC1)S(=O)(=O)c1ccc(Br)cc1  -0.0521
42. O=C(Cc1coc2ccc3ccccc3c12)NCc1cccs1  -0.0182
43. COc1ccc(S(=O)(=O)NCC(c2cccnc2)N2CCN(c3ccccc3)CC2)cc1C (centres undefined)  -0.00582
44. O=C(NC1CCCCC1)C1CN(S(=O)(=O)c2ccccc2)CCN1S(=O)(=O)c1ccccc1 (centres undefined)  -0.0054
45. CCCOC(=O)C(C)n1cnc2sc(C)c(C)c2c1=O (centres undefined)  0.00229
46. O=C(Nc1cccc(Cl)c1)C1C2CCC3C(CCC21)C3(Cl)Cl (centres undefined)  0.00472
47. Cc1ccc(SCCNC(=O)c2ccc(C)c(S(=O)(=O)Nc3cccc(C)c3)c2)cc1  0.00716
48. CC1CCC(NC(=O)c2ccc3nc[nH]c3c2)CC1 (centres undefined)  0.0196
49. CC(NS(=O)(=O)c1cccc(S(=O)(=O)c2ccccc2)c1)C(=O)O (centres undefined)  0.0424
50. CCc1ccccc1NC(=O)Cn1nc(C(F)(F)F)cc1C1CC1  0.0708
51. c1cn(CCCNC2=NCCCCC2)cn1  0.103
52. COCCNC(=O)c1cc(-c2ccc3c(c2)OCO3)on1  0.152
53. FC(F)(F)c1cccc(NC(=S)NCc2ccccn2)c1  0.164
54. O=C(c1ccccc1)N1CCN(S(=O)(=O)N2CCCCC2)CC1  0.169
55. CCCc1nn(C)c2c1C(c1cccnc1)C(C#N)=C(N)O2 (centres undefined)  0.17
56. CNC(=O)c1c(N)sc2c1CCCCC2  0.209
57. Cc1cc(C(F)(F)F)c2c(N)c(C(=O)Nc3cc(C)on3)sc2n1  0.209
58. O=C(c1cc(-c2ccc(Cl)cc2)n(-c2ccc(Cl)c(Cl)c2)n1)N1CCOCC1  0.24
59. CN(C(=O)c1ccc(C(=O)N(C)C2CCCCC2)cc1)C1CCCCC1  0.244
60. Cn1c(=O)oc2cc(S(=O)(=O)N3CCN(c4ccccc4)CC3)ccc21  0.317
61. CN(C)S(=O)(=O)c1ccc(N2CCCC2)c(C(=O)Nc2nc3c(ccc4ccccc43)s2)c1  0.513
62. COc1ccc(Cl)cc1C(=O)Nc1ccccc1N1CCN(C(=O)C(C)C)CC1  0.564
63. c1ccc2c(c1)Cc1cc(CN3CCOCC3)ccc1-2  0.618
64. C/C(=N\NC(=O)c1csc(C)c1C)c1ccco1  0.816
65. CN(C)S(=O)(=O)c1ccc2c(c1)c(=O)c(C(=O)N1CCOCC1)cn2C  0.863
66. CC(=O)Nc1cc(NC(=O)CCCC(=O)O)ccc1Cl  0.939
67. COc1ccc(CNc2nc3nc(C)cc(C)n3n2)cc1OC  0.946
68. CC(=O)NC1(C(F)(F)F)C(=O)Nc2c1c(=O)n(C)c(=O)n2C (centres undefined)  0.969
69. CN(C)CCN1C(=O)c2oc3ccc(Cl)cc3c(=O)c2C1c1cccc(Br)c1 (centres undefined)  1.89
